PubChem BioAssay AID1631 (National Center for Advancing Translational Sciences (NCATS), 2009)
The whole screen tested about 260,000 compounds, of which about 890 (0.34%) were called active. The shares of active, inactive and inconclusive entries below differ from those in the screen. The call rests on the fitted dose curve; in most records, active means well fitted activation curve with a large enough effect; inconclusive means small, poorly fitted or top-dose-only effect; inactive means no such curve, though single readings can be large or run the other way. Potencies of inconclusive entries are left out as doubtful fits.

target: Pyruvate kinase PKM (Homo sapiens) (UniProt P14618); experiment: qHTS Assay for Activators of Human Muscle isoform 2 Pyruvate Kinase; details: purified PKM2, Kinase-Glo ATP luminescence; Potency: activation; activation: at 57.5 µM (top of the series), 0% is enzyme alone, no compound; further: nearly all actives have a fitted effect of over 55% in size
Summary of the method: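 Kinase-Glo luminescence reports ATP generated from ADP (0.1 mM) and PEP (0.5 mM) by purified hPK-M2 after 1 h at room temperature, pH 7.2 imidazole buffer; intermediate enzyme activity allows detecting inhibitors and activators.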
On the % scale 0 is the no-effect control and ±100 the full control effect; potency means the concentration at half of the fitted maximal effect; tags describe the fitted curve by direction and shape.

UniProt P14618, sequence (P14618 whole entry, looked up, canonical isoform): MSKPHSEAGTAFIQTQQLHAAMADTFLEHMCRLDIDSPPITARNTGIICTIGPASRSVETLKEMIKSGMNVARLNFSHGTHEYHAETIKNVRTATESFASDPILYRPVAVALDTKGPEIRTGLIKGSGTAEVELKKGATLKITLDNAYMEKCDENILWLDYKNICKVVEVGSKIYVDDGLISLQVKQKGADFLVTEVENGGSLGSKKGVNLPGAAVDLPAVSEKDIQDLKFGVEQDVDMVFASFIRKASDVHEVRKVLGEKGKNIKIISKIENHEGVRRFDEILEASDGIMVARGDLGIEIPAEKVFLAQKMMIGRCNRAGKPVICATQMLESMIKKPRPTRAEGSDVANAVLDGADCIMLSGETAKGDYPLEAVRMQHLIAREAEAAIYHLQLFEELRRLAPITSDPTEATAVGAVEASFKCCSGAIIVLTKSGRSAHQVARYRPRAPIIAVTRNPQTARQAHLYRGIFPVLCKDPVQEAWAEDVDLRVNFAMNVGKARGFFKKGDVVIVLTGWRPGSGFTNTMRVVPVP

| SMILES | Potency | activation |
| --- | --- | --- |
| COc1cccc(Cn2c(C3CC3)nc3ccc(NC(=O)c4ccco4)cc3c2=O)c1 | inconclusive [rising, single point] |  |
| Cc1ccccc1/[N+]([O-])=C/c1cccs1 | inconclusive [rising, single point] |  |
| CC1(C)Cc2c(cnn2-c2ccc(F)cc2)C(NC(=O)CCN2CCCCO2)C1 (stereo not given) |  | inactive: 0.207% |
| CCc1cc(CNC(=O)CCc2nnc(CCCc3ccccc3)o2)on1 |  | inactive: 4.49% |
| CN1CCc2nc(SCC(=O)Nc3ccc(F)cc3)c(C#N)cc2C1 | inconclusive [rising, partial curve] |  |
| Cc1ccc(NS(=O)(=O)c2ccc3c(c2)CC(=O)N3)c(C)c1 | inconclusive [rising, partial curve] |  |
| CC1(C)CC(Nc2ccc(Nc3ccccc3)cc2)CC(C)(C)N1 | inconclusive [rising, partial curve] |  |
| COc1cccc(CNc2ccc([N+](=O)[O-])cc2Cl)c1O | inconclusive [rising, partial curve] |  |
| CNCc1ccccc1Sc1ccc(O)c(O)c1 | inconclusive [rising, full curve] |  |
| COc1cc(/C=C2\COC/C(=C\c3ccc(O)c(OC)c3)C2=O)ccc1O | inconclusive [rising, single point] |  |
| Cc1cc(=O)[nH]c(SCc2nc3ccc([N+](=O)[O-])cc3[nH]2)n1 | inconclusive [rising, single point] |  |
| COc1ccc(-c2ccc(CCC(=O)O)o2)cc1 | inconclusive [rising, partial curve] |  |
| Cc1ccc2[nH]c(=O)cc(C(=O)OC(C)C)c2c1 | inconclusive [rising, single point] |  |
| O=C(c1ccc2c(c1)OCCO2)N1CCN(Cc2ccccc2)CC1 | inconclusive [rising, single point] |  |
| CS(=O)(=O)N(CC(=O)NCc1ccco1)Cc1ccc(Cl)cc1 | inconclusive [rising, single point] |  |
| CCOc1cc(/C=N/Nc2nc(N3CCCC3)nc(N3CCCC3)n2)ccc1O | inconclusive [rising, full curve, poor fit] |  |
| CC(C)CCN1CCN(Cc2cccc3cccnc23)CC1CCO (stereo not given) | inconclusive [rising, single point] |  |
| O=c1c2c3c(sc2n2cnnc2n1Cc1ccccc1)CN(Cc1ccccc1)CC3 | inconclusive [rising, partial curve] |  |
| COc1ccc(C(=O)Nc2nnc(SCC(=O)NCc3ccco3)s2)c(OC)c1 |  | inactive: 22.5% |
| CN(CCO)c1nc(N)c2c(N)nc3c(c2c1C#N)CC(=O)N3C1CCCC1 |  | inactive: -0.203% |
| COc1cccc2c(SCC(=O)N/N=C/c3ccc(O)c(O)c3)cc(C)nc12 | inconclusive [rising, partial curve] |  |
| c1ccc2c(c1)NC1(CCCCCC1)n1c-2nc2ccccc21 |  | inactive: -9.74% |
| COc1cc2c(cc1NC(=S)NC(=O)/C=C/c1ccc(OC)c(OC)c1)oc1ccccc12 |  | inactive: -1.07% |

| SMILES | Potency | activation |
| --- | --- | --- |
| Clc1ccc(-c2csc3ncnc(Cl)c23)cc1 |  | inactive: 4.01% |
| CC(=O)Nn1cc2c(c1-c1ccccc1)c(=O)n(C)c(=O)n2C |  | inactive: 1.77% |
| COc1ccc(-c2nsc(SCC(=O)Nc3cc(C)on3)n2)cc1 | inconclusive [rising, full curve] |  |
| Cc1cnc(C(=O)N2CCCC(C(=O)c3ccc(C(F)(F)F)cc3)C2)cn1 (stereo not given) | inconclusive [rising, single point] |  |
| O=C1CC(c2ccco2)Cc2c1cnn2-c1nc2ccccc2s1 (stereo not given) | inconclusive [rising, single point] |  |
| CNS(=O)(=O)c1cccc(C(=O)OCc2cc(C(C)=O)ccc2OC)c1 | inconclusive [rising, single point] |  |
| COc1cc(/C=N/NC(=O)c2ccc3nc[nH]c3c2)ccc1O | inconclusive [rising, partial curve] |  |
| O=C1c2ccccc2C(=O)N1CCCCN(C(=O)c1ccco1)c1ccc(Cl)cc1 |  | inactive: -4.67% |
| CCc1nc(SCc2nc3ccccc3[nH]2)c2oc3ccccc3c2n1 | inconclusive [rising, partial curve] |  |
| O=C(CCN1C(=O)/C(=C/c2ccc(F)cc2)SC1=S)Nc1cccnc1 | inconclusive [rising, full curve, poor fit] |  |
| COC(=O)c1sc2ccccc2c1-n1cccc1C(=O)C(=O)Nc1ccc(OC)cc1 |  | inactive: -16.6% |
| CN1C(=O)N(C)C2(c3ccccc3)NC(=O)NC12c1ccccc1 (stereo not given) | inconclusive [rising, single point] |  |
| Cc1nc2ccccc2n1CC(=O)N1CC(=O)Nc2ccccc21 | inconclusive [rising, partial curve, poor fit] |  |
| CCc1ccc2[nH]c(=O)c(C(c3nnnn3CC3CCCO3)N3CCCc4ccccc43)cc2c1 (stereo not given) | inconclusive [rising, single point] |  |
| O=C1CC(c2ccco2)Cc2nc(N3CCc4ccccc4C3)ncc21 (stereo not given) | inconclusive [rising, partial curve] |  |
| CCOC(=O)N1CCN(C(=O)c2ccc3c(=O)n(CCC4=CCCCC4)c(=S)[nH]c3c2)CC1 |  | inactive: 3.74% |
| Cc1cccc(NS(=O)(=O)c2ccc3c(c2)CCC(=O)N3)c1 | active: 3.98 µM |  |
| COc1cccc(CNC(=O)CCC2CCCN(C(=O)c3cc(C)[nH]n3)C2)c1 (stereo not given) | inconclusive [rising, partial curve] |  |
| Cn1nccc1C(=O)N1CCCC(C(=O)c2ccc(C(F)(F)F)cc2)C1 (stereo not given) |  | inactive: -0.434% [at 0.46 µM, 0% is enzyme alone, no compound] |
| CCC(C)NC(=S)N1CCN(Cc2ccccc2)CC1 (stereo not given) | inconclusive [rising, partial curve, poor fit] |  |
| Cc1ccc2c(c1)c1nnc(SCC(=O)NC3CC3)nc1n2C | inconclusive [rising, partial curve] |  |
| COc1ccccc1C(CCN(Cc1ccccc1)C(C)=O)c1ccco1 (stereo not given) | inconclusive [rising, single point] |  |
